# Reference: patent US20020119979A1, “Acyclic compounds and methods for treating multidrug resistance” (priority 2000, published 2002)
# At least one read-out could not be matched to a standard name with certainty.
# Tested on: NIH-MDR1-G185 cells
# Test: Fluorescent substrate (BODIPY-FL Taxol) accumulation assay
# Type: cell-based
# Conditions: BODIPY-FL taxol 500 nM, MDR modulator 10 micromolar, 40 min at 37° C.; fluorescence in NIH-MDR1-G185 cells in presence / absence of modulator
# Protocol: Fluorescent Substrate Accumulation Assay
# NIH-MDR1-GI 85 cells (obtained from M. Gottesman, NI1H) were harvested and resuspended in RPMI-1640 containing L-glutamine, 10% Cosmic Calf Serum and penicillin-streptomycin. Cell suspension aliquots of 175 microliters (1×10^5 cells) were added to individual wells of a 96 well microtiter plate and preincubated for 15 min at 37° C. with 20 microliters MDR modulator diluted in cell culture media to give a final concentration of 10 micromolar. Control wells received no modulating agent. BODIPY-FL Taxol (Molecular Probes, Eugene, Oreg.) was added to each well in 10 microliter aliquots to give a final concentration of 500 nM and cells were incubated for 40 min at 37° C. Cells were centrifuged at 100× g for 5 min at 4° C. and the cell pellet washed with 200 microliters cold PBS to remove fluorescent medium from wells. Cells were centrifuged once more, media removed, and cells resuspended in 200 microliters cold PBS. Fluorescence accumulation was measured in a fluorescence plate reader fitted with an excitation filter of 485 nm and an emission filter of 538 nm. BODIPY-FL taxol accumulation in the cells was calculated as follows:
# Accumulation Index=(fluorescence in NIH-MDR1-G185 cells in the presence of modulator)/(fluorescence in NIH-MDR1-G185 cells in absence of modulator)
# Accumulation Index of various compounds prepared above was tested according to the method in Reference Example 3.
row,Structure (SMILES),Accumulation Index
1,"O=C(CCCCNC[C@@H](O)COc1cccc2ncccc12)NC(CCCc1ccccc1)CCCc1ccccc1 [Example 22, N-{1-[2-(R)-Hydroxy-3-(quinolin-5-yloxy)-propyl]}-5-aminopentanoic acid [4-phenyl-1-(3-phenyl-propyl)-butyl]-amide]",11
2,"O=C(NCCCCc1ccccc1)C(NC[C@@H](O)COc1cccc2ncccc12)C(=O)NCCCCc1ccccc1 [Example 38, N-{1-[2-(R)-Hydroxy-3-(quinolin-5-yloxy)-propyl]}-2-aminomalonic acid (4-phenylbut-1yl) bisamide]",8
3,"CN(CC(=O)NC(CCCc1ccccc1)CCCc1ccccc1)C[C@@H](O)COc1cccc2ncccc12 [Example 19, N-{1-[2-(R)-Hydroxy-3-(quinolin-5-yloxy)-propyl]} -N-methyl-2-aminoacetic acid [4-phenyl-1-(3-phenyl-propyl)-butyl]-amide]",9
4,"O=C(CCc1cccnc1)N[C@@H](Cc1cccnc1)C(=O)N1CCN(C(c2ccccc2)c2ccccc2)CC1 [Example 5, N-[2-(4-Benzhydryl-piperazin-1-yl)-2-oxo-1-pyridin-3-ylmethyl-ethyl]-3-pyridin-3-yl-propionamide]",7
5,"O=C(N[C@@H](Cc1cccnc1)C(=O)N1CCN(C(c2ccccc2)c2ccccc2)CC1)c1ccc2ncccc2c1 [Example 4, Quinoline-6-carboxylic acid [2-(4-benzhydryl-piperazin-1-yl)-2-oxo-1-pyridin-3-ylmethyl-ethyl]-amide]",7
6,"O[C@@H](COc1cccc2ncccc12)CN(Cc1ccccc1)Cc1ccccc1 [Example 12, N,N-Dibenzyl-N-{ (R)-1-[2-hydroxy-3-(quinolin-5-yloxy)-propyl]}amine]",6
7,"O=C(CN(CC(=O)NC(CCCc1ccccc1)CCCc1ccccc1)C[C@@H](O)COc1cccc2ncccc12)NC(CCCc1ccccc1)CCCc1ccccc1 [Example 34, N-{1-[2-(R)-Hydroxy-3-(quinolin-5-yloxy)-propyl]}-iminodiacetic acid [4-phenyl-1-(3-phenyl-propyl)-butyl]-amide]",6
8,"O[C@H](CNC(CCCc1ccccc1)CCCc1ccccc1)COc1cccc2ncccc12 [Example 13, N-(1,7-Diphenyl-4-hentyl)-N-{(R)-1-[2-hydroxy-3-(quinolin-5-yloxy)-propyl]}amine]",10
9,COc1ccc(S(=O)(=O)N(CC(=O)OC(CCCc2cccnc2)CCCc2cccnc2)CC(=O)N2CCN(C(c3ccccc3)c3ccccc3)CC2)cc1OC [Example 9],6
10,"CN(CC(=O)N(Cc1ccccc1)Cc1ccccc1)C[C@@H](O)COc1cccc2ncccc12 [Example 28, N-{1-[2-(R)-Hydroxy-3-(quinolin-5-yloxy)-propyl]}-N-methyl-2-aminoacetic acid dibenzylamide]",8
11,"COc1ccc(S(=O)(=O)N[C@@H](Cc2cccnc2)C(=O)N2CCN(C(c3ccccc3)c3ccccc3)CC2)cc1OC [Example 6, N-[2-(4-Benzhydryl-piperazin-1-yl)-2-oxo-1-pyridin-3-ylmethyl-ethyl]-3,4-dimethoxy-benzenesulfonamide]",5
12,COc1cc(CNC(=O)CN(CC(=O)N2CCN(C(c3ccccc3)c3ccccc3)CC2)C[C@@H](O)COc2cccc3ncccc23)cc(OC)c1OC [Example 16],9
13,"CN(CC(=O)N1CCN(C(c2ccccc2)c2ccccc2)CC1)C[C@@H](O)COc1cccc2ncccc12 [Example 31, N-{1-[2-(R)-Hydroxy-3-(quinolin-5-yloxy)-propyl]}-N-methyl-2-aminoacetic acid (4-benzhydrylpiperazine-1-yl) amide]",7
14,"CC(C)(C)OC(=O)N(CC(=O)OC(CCCc1cccnc1)CCCc1cccnc1)CC(=O)N1CCN(C(c2ccccc2)c2ccccc2)CC1 [Example 7, {[2-(4-Benzhydryl-piperazine-1-yl)-2-oxo-ethyl]-tert-butoxycarbonyl-amino}acetic acid 4-pyridin-3-yl-1-(3-pyridin-3-yl-propyl)-butyl ester]",6
